{"source": "the supplement of paper PMC10338343", "note": "± gives the standard deviation. The full ranking holds about 5,500 sequences; the median of “pre-steady-state target cleavage rate” is about 0.1, and the highest 2% start at about 0.64. This is a selection; strong and weak results do not stand in their true shares.", "data": [{"tested_on": "MIWI (PIWIL1) piRISC loaded with piRNA #2 (30 nt)", "test": "pre-steady-state target cleavage rate (min^-1); MIWI and MILI are mouse PIWI proteins and EfPiwi is from a freshwater sponge; tags in brackets are library labels; higher = faster piRNA-guided slicing of the target", "settings": "guide: piRNA #2 5'p-UUAGGUAACCCAGUAGAUCCAGAGGAAUUC; auxiliary factor: 500 nM mouse GTSF1", "how_it_was_run": "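Cleave-'n-Seq: 1 nM active affinity-purified piRISC with one synthetic guide and 0.1 nM transcribed, DNA-blocked target RNA library were mixed, with or without 500 nM GTSF1 partner protein, in HEPES–potassium acetate buffer at 33 °C for 0–8 or 0–960 min. Uncleaved targets were sequenced and normalised to depth and to weakly complementary targets, three trials were pooled, and k3 was capped at 0.0001 min^-1. The pre-steady-state cleavage rate was fitted […].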", "values": [{"sequence": "CUUAACCUCUGGUUCUUCUGGGUUACCUAA", "pre-steady-state target cleavage rate": "0.383 ± 0.047"}, {"sequence": "CAAUUCCUGUGCAUCUACUGGGUUACCUAA", "pre-steady-state target cleavage rate": "0.384 ± 0.029"}, {"sequence": "CUAUUCCAGAGGAUCUACUGGGUUACCUAA", "pre-steady-state target cleavage rate": "0.191 ± 0.035"}, {"sequence": "CUUAACCUCUCGAACUACUGGGUUACCUAA", "pre-steady-state target cleavage rate": "0.321 ± 0.031"}, {"sequence": "CAAUUCGUCAGGAUCUACUGGGUUACCUAA", "pre-steady-state target cleavage rate": "0.421 ± 0.065"}, {"sequence": "GAAUUCCUCUGGAUACUACUGGGUUACCUAA", "pre-steady-state target cleavage rate": "0.373 ± 0.056"}, {"sequence": "CUUUUGCUCUGCAUCUACUGGGUUACCUAA", "pre-steady-state target cleavage rate": "0.257 ± 0.03"}, {"sequence": "CUUAACCUCUGGAUCUUCUGGCUUACCUAA", "pre-steady-state target cleavage rate": "0.0208 ± 0.0068"}, {"sequence": "CUUUUCCUGUGGAUCUACUGGGUAACCUAA", "pre-steady-state target cleavage rate": "0.182 ± 0.042"}, {"sequence": "CUUAUGCUCUGGAUCUACUGGGUUUCCUAA", "pre-steady-state target cleavage rate": "0.131 ± 0.021"}, {"sequence": "CUUAAGGACUGGAUCUACUGGGUUGCCUAA", "pre-steady-state target cleavage rate": "0.0888 ± 0.035"}, {"sequence": "CUAUACCUCUGGAUGUACUGGGUUACCUAA", "pre-steady-state target cleavage rate": "0.428 ± 0.026"}, {"sequence": "CUUAACCUCUGGAUCACUGGGUUACCUAA", "pre-steady-state target cleavage rate": "0.0165 ± 0.0039"}, {"sequence": "GAAUUCCUCUGGAACUACUGGGUUAGCUAA", "pre-steady-state target cleavage rate": "0.388 ± 0.049"}, {"sequence": "CAAUUGCUCUGGAUCUACUGGGUUACGUAA", "pre-steady-state target cleavage rate": "0.536 ± 0.067"}, {"sequence": "GAUUUCCUCAGGAUCUACUGGGUUACCUAA", "pre-steady-state target cleavage rate": "0.459 ± 0.046"}, {"sequence": "CUUUUCCUCUGGAUCUACUGGGUGUACCUAA", "pre-steady-state target cleavage rate": "0.247 ± 0.03"}, {"sequence": "CAAUUGCCUCUGGAUCUACUGGGUUACCUAA", "pre-steady-state target cleavage rate": "0.33 ± 0.056"}, {"sequence": "CUUAACUUCUGGAUCUACUGGGUUACCUAA", "pre-steady-state target cleavage rate": "0.159 ± 0.017"}, {"sequence": "CUAUUCCUCUCGGAUCUACUGGGUUACCUAA", "pre-steady-state target cleavage rate": "0.575 ± 0.089"}, {"sequence": "CUUAAGGUCUGCAUCUACUGGCUUACCUAA", "pre-steady-state target cleavage rate": "0.0305 ± 0.0092"}, {"sequence": "CUUUUCCUGUGGAUCUACUGGGUUUCCUAA", "pre-steady-state target cleavage rate": "0.255 ± 0.038"}, {"sequence": "CUUAAGGAGUGGAUCUACUGCGUUACCUAA", "pre-steady-state target cleavage rate": "0.0756 ± 0.019"}, {"sequence": "CUUAACCUCUGGAUCAAGUGGGUUACCUAA", "pre-steady-state target cleavage rate": "0.0128 ± 0.0045"}, {"sequence": "CAAUUCGUCUGGAUGUACUGGGUUACCUAA", "pre-steady-state target cleavage rate": "0.0676 ± 0.036"}, {"sequence": "CAAUUCCUCUGGAUCUACUGCGUUACCUAA", "pre-steady-state target cleavage rate": "0.593 ± 0.069"}, {"sequence": "CUUAAGGAGACCUUCUACUGCGUUACGUAA", "pre-steady-state target cleavage rate": "0.005 ± 0.0034"}, {"sequence": "CUUAAGGAGACCUAGAACUGGGUUACCAUAA", "pre-steady-state target cleavage rate": "< 0.0001"}, {"sequence": "CUAUUCCUCUGGAUCUACAGGGUUACCUAA", "pre-steady-state target cleavage rate": "0.236 ± 0.026"}, {"sequence": "CUAUUCCUCUGGAUCUACUGGGUUGCCUAA", "pre-steady-state target cleavage rate": "0.368 ± 0.044"}, {"sequence": "CUUAACCACUGGAUCUAGUGGGUUACCUAA", "pre-steady-state target cleavage rate": "0.208 ± 0.028"}, {"sequence": "CUAUUCCUGUGGAUCUACUGCGUUACCUAA", "pre-steady-state target cleavage rate": "0.425 ± 0.055"}, {"sequence": "CAAUUCCUCUGGAUCUACUGGGUUACCGUAA", "pre-steady-state target cleavage rate": "0.414 ± 0.06"}, {"sequence": "CUUUUCCUCUGGAUCUAGUGGGUAACCUAA", "pre-steady-state target cleavage rate": "0.0559 ± 0.0098"}, {"sequence": "CUUAAGCACUGGAUGUACUGGGUUACCUAA", "pre-steady-state target cleavage rate": "0.46 ± 0.043"}, {"sequence": "CUUAACCUCUGGAGCUACUGGGUUACCUAA", "pre-steady-state target cleavage rate": "0.28 ± 0.029"}, {"sequence": "CUUUUCCACUGGAUCUACUGGCUUACCUAA", "pre-steady-state target cleavage rate": "0.0677 ± 0.011"}, {"sequence": "CUUAUCCUCUGGAUCUACUGGGUAACGUAA", "pre-steady-state target cleavage rate": "0.364 ± 0.061"}, {"sequence": "CUUAUUCCUCUGGAUCUACUGGGUUACCUAA", "pre-steady-state target cleavage rate": "0.3 ± 0.043"}, {"sequence": "CAAAUCCUCUGGAUCUACUGGGUUACGUAA", "pre-steady-state target cleavage rate": "0.555 ± 0.064"}, {"sequence": "CUUAAGCUCUGGAUCAACUGGGUUACCAAA", "pre-steady-state target cleavage rate": "0.11 ± 0.016"}, {"sequence": "CUUAAGCUCUGGAUCUUCUGGGUAACCUAA", "pre-steady-state target cleavage rate": "0.0269 ± 0.0093"}, {"sequence": "CUUAACCUCUGGAUGCUACUGGGUUACCUAA", "pre-steady-state target cleavage rate": "0.188 ± 0.022"}, {"sequence": "CUUAUCCUCUGGAUCUACUUGGUUACCUAA", "pre-steady-state target cleavage rate": "0.00515 ± 0.0046"}, {"sequence": "CUAUUCCUCUGGAUCUACUGGGUUUACCUAA", "pre-steady-state target cleavage rate": "0.495 ± 0.058"}, {"sequence": "CUUAAGCUCUGGAUCUACUGGGUUAACCUAA", "pre-steady-state target cleavage rate": "0.111 ± 0.019"}, {"sequence": "CUUUUCCUCUGGAUUUACUGGGUUACCUAA", "pre-steady-state target cleavage rate": "0.55 ± 0.053"}, {"sequence": "CUUAAGCUCUGGAUCUACUGGGUUACGUAA", "pre-steady-state target cleavage rate": "0.45 ± 0.043"}, {"sequence": "GAAUUCCUCUGGAACUACUGGGUUACCUAA", "pre-steady-state target cleavage rate": "0.262 ± 0.037"}, {"sequence": "CUUAUCCUCUGGAGCUACUGGGUUACCUAA", "pre-steady-state target cleavage rate": "0.399 ± 0.031"}, {"sequence": "CUUUUCCUCUGGAUCUACUGGGUCUACCUAA", "pre-steady-state target cleavage rate": "0.463 ± 0.038"}, {"sequence": "CAAUUCCUCUGGAUCUACUGGGCUACCUAA", "pre-steady-state target cleavage rate": "0.14 ± 0.029"}, {"sequence": "CAAUUCCUCUGGAUCUACUGGGUAAGCUAA", "pre-steady-state target cleavage rate": "0.0773 ± 0.026"}, {"sequence": "CUUAAGGAGUGGAUCUACUGGGUUACCUAAA", "pre-steady-state target cleavage rate": "0.195 ± 0.035"}, {"sequence": "CUUAACCUCUGGUCUACUGGGUUACCUAA", "pre-steady-state target cleavage rate": "0.127 ± 0.028"}, {"sequence": "CUUAUCCUCUGGAUCUACUGGGUUACGUAA", "pre-steady-state target cleavage rate": "0.684 ± 0.049"}, {"sequence": "CUAAUCCUCUGGAACUACUGGGUUACCUAA", "pre-steady-state target cleavage rate": "0.484 ± 0.03"}, {"sequence": "CUUAACCUCUGGUUCUACUGGGUUACCUUA", "pre-steady-state target cleavage rate": "0.335 ± 0.055"}, {"sequence": "CAAUUCCUCUGGAUCUACUGGGAAACCUAA", "pre-steady-state target cleavage rate": "0.274 ± 0.049"}, {"sequence": "GAAUACCACUGGAUCUACUGGGUUACCUAA", "pre-steady-state target cleavage rate": "0.293 ± 0.042"}, {"sequence": "CAAUUCCUCUGGAUCUAGUGCGUUACCUAA", "pre-steady-state target cleavage rate": "0.092 ± 0.015"}, {"sequence": "CUAUUCCUCUGCAUCAACUGGGUUACCUAA", "pre-steady-state target cleavage rate": "0.394 ± 0.03"}, {"sequence": "GAAUUCCUCUGGAUCUACUGGGUGUACCUAA", "pre-steady-state target cleavage rate": "0.303 ± 0.046"}, {"sequence": "CUAUUCCUCUGGAUCUACUGGGUUCCCUAA", "pre-steady-state target cleavage rate": "0.246 ± 0.041"}, {"sequence": "CUUAAGGAGACCAUCAACUCGGUUACCUAA", "pre-steady-state target cleavage rate": "< 0.0001"}, {"sequence": "CUUAAGGAGACCUAGAUGUGGCGUUACCUAA", "pre-steady-state target cleavage rate": "0.00651 ± 0.0029"}, {"sequence": "CUAUUCCUCUGGAGUCUACUGGGUUACCUAA", "pre-steady-state target cleavage rate": "0.505 ± 0.051"}, {"sequence": "GAAUUCCUCUGGAUCUACUGGGUUAGCUUA", "pre-steady-state target cleavage rate": "0.379 ± 0.057"}, {"sequence": "CUUAUCCUCUGGAUUUACUGGGUUACCUAA", "pre-steady-state target cleavage rate": "0.555 ± 0.04"}, {"sequence": "CUUAAGCUCUGGAUCUACUCGGUUACCUUA", "pre-steady-state target cleavage rate": "0.0434 ± 0.013"}, {"sequence": "CUUAACCUCUGGAUCUACUGGGUAUGCUAA", "pre-steady-state target cleavage rate": "0.0233 ± 0.0061"}, {"sequence": "CAAUUCCUCUGGAUCUACUGGGUUAGCUUA", "pre-steady-state target cleavage rate": "0.211 ± 0.061"}]}]}
